The other results are listed elsewhere or left out. Single values are uncertain, as repeats are few or missing.

The assay has as its system Candida albicans DPL-15. In words: growth (OD600) after compound treatment (apparently relative to screen median) (relative growth (fraction; screen median 1.02)); DPL-15 is a caspofungin-resistant clinical isolate; higher = more fungal growth (less antifungal activity). Conditions: 25 µM; RPMI 1640; 48 h; 30 °C.
Consider `Nc1c(-c2ccc(F)cc2)cnc2c(-c3ccc(F)cc3)cnn12`, for which the growth stood at 1.35.
Take `COc1cc(OC)c2c(=O)c3c(C[C@H]4[C@H](c5cc(OC)c(O)c6oc7cc(OC)cc(OC)c7c(=O)c56)C=C(C)CC4(C)C)cc(OC)c(O)c3oc2c1`: the growth is 0.969.
In the case of `COC(=O)c1cc2c(c3c4cc(F)ccc4n(S(=O)(=O)c4ccc(C)cc4)c13)C(=O)N(Cc1ccc(C)cc1)C2`, the growth was found to be 0.992.
As to `CC1=C(C)CC2(C(=O)C(C)(C)C(=O)C(C)(C)C2=O)[C@H](C(=O)C(C)C)C1`, the growth was 0.981.
For the molecule `O=C(O)Cn1nnc(-c2ccc(CO)cc2)n1`, the growth stood at 1.25.
To `Cc1ccc(C2C3=C(C(=O)N2c2ccccc2)N(C)CCN=C3C(C)C)cc1` (stereo not drawn) belongs 1.03; to `CC(C)[C@H]1CC[C@H](C)C[C@@H]1OS(=O)(=O)NCC(F)(F)F`, 1.11.
The value for `COc1ccc(N2C(=O)c3c(c(-c4ccccc4)nn3C)C2c2ccccc2)cc1` (stereo not drawn) was 0.945.
To `Cc1c(C)c(C(=O)O)c(O)c(C)c1O` belongs 1.31; to `C[C@H]1/C=C/CC(=O)N[C@H](c2ccc(C(F)(F)F)cc2)CC(=O)N[C@@H](Cc2c[nH]c3ccccc23)C(=O)N[C@H]1c1ccccc1`, 1.06.
As for `COC(=O)C1=C(C)N(CC#Cc2cc(C)cc(C)c2)C(=O)NC1c1ccccc1` (stereo not drawn), the growth was found to be 1.12.
The value for `COC(=O)C#CCCCNC(=O)OC(C)(C)C` was 1.09.
The value for `CC(C)CC1=NCCN(C)C2=C1C(c1ccc(Br)cc1)N(Cc1ccccc1)C2=O` (stereo not drawn) was 0.942.
The value for `CC(C)C1=NCCN(C)C2=C1C(c1cccc(C(F)(F)F)c1)NC2=O` (stereo not drawn) was 0.923.
For `COc1cc(OC)c2c(c1)O[C@@]1(c3ccc(Br)cc3)[C@H](c3ccccc3)[C@@H](CN(C)C)[C@@H](O)[C@@]21O`, the growth came out at 1.01.
For the molecule `C[C@@H]1NC(=O)C[C@@H]2C[C@H](C)[C@H](c3ccccc3)N2C1=O`, the growth stood at 1.43.
Consider `N#Cc1ccc(NS(=O)(=O)N2CCOCC2)cc1`, for which the growth was found to be 1.04.
To `CC(C)C1=NCC(C)(C)NC2=C1C(c1ccccc1)N(c1ccccc1)C2=O` (stereo not drawn) belongs 1.01.
The value for `C=CCn1nc2c(c1CC(C)C)C(c1ccc(F)cc1)N(c1ccc(OC)cc1)C2=O` (stereo not drawn) was 0.893; that for `Cc1c(C(=O)N2CCOCC2)cc2nc(=O)n(-c3ccc(F)cc3)c-2cc1-c1ccccc1` was 1.04; that for `COc1cccc(C2CC(c3ccccc3)=CC2=O)c1` (stereo not drawn) was 1.06.
The value for `COC(=O)[C@@]12Oc3ccc(-c4cc(F)ccc4C#N)c(O)c3C(=O)C1=C(N)C[C@H](C)[C@H]2O` was 1.28; that for `COC(=O)C1=C(C)N(Cc2ccccc2)C(=S)NC1c1cccc(F)c1` (stereo not drawn) was 0.957.
For the molecule `C[C@H]1C[C@H]2CC(=O)N3CCC[C@H]3C(=O)N2[C@H]1c1ccccc1`, the growth was found to be 1.06.
On to `COc1ccc([C@H]2c3cc4c(cc3C[C@@H](C)[C@@H]2CO)OCO4)cc1OC`, for which the growth worked out at 1.07.
For the molecule `c1ccc(CCCc2cccc(CCCc3ccccc3)n2)cc1`, the growth was found to be 1.06.
The value for `C=C(C)[C@]1(O)C[C@@H](C)[C@]2(O)[C@@H]3CCC4(OCCO4)[C@@]34CC(C)=C[C@@]2(O4)C1=O` was 1.05; that for `COc1ccc2c(c1)C[C@@H](C)O[C@]21C(=O)Nc2ccccc21` was 1.02.
The value for `CC(=O)C1=C(C)N(Cc2ccc(Cl)cc2)C(=S)NC1c1ccc(F)cc1` (stereo not drawn) was 0.87.
On to `COC(=O)/C=C/c1cc(OC)c(OC)c(OC)c1`, for which the growth turned out to be 1.17.
The value for `c1ccc(CCN2CCCC(CNCc3ccccc3)C2)cc1` (stereo not drawn) was 1.02.
Consider `COC(=O)C/C=C/[C@H](C)[C@H](NC(=O)C(F)(F)F)c1ccc([N+](=O)[O-])cc1`, for which the growth was 0.915.
Regarding `CCOc1ccccc1[C@H]1O[C@@H](c2cccc3ccccc23)C(C(=O)OC)=C1C(=O)OC`, the growth stood at 1.24.
The value for `COc1ccc(N2C(=O)C3=C(C(CC(C)C)=NCC(C)(C)N3)C2c2cccc(C(F)(F)F)c2)cc1` (stereo not drawn) was 0.906; that for `COc1ccc(-n2nc3cc2COC[C@H](c2ccccc2)NC(=O)CC2(CCCCC2)CNC(=O)c2cccc-3c2)cc1` was 1.15; that for `CC(C)CC1=NCCNC2=C1C(c1cccc(C(F)(F)F)c1)NC2=O` (stereo not drawn) was 1.02.
In the case of `C[C@H]1C[C@H]2CC(=O)N3CCC[C@@H]3C(=O)N2[C@H]1c1ccccc1`, the growth was 0.914.
To `CC(=O)C1=C2C=CCCN2C(=O)NC1c1cc(C)cc(F)c1` (stereo not drawn) belongs 1.08.
The value for `C#CCOC[C@@H](NC(=O)CC1(CNC(=O)c2cccc3cnnn23)CCCCC1)c1ccccc1` was 1.09.
Turning to `CC(C)C1=C[C@H]2[C@H]3C(=O)C(c4ccc(O)cc4)=C[C@@]3(c3ccc(O)c(O)c3)[C@@H]1C(=O)[C@]2(C)O`, the growth was found to be 0.953.
Consider `Cc1ccc(S(=O)(=O)Oc2c(C[C@@]34CCCCCCC3=Nc3ccccc34)occc2=O)cc1`, for which the growth was 1.06.
To `C=CC[C@@]12C[C@H]3[C@@H](O)[C@@](CC=C)(C1=O)C(=O)[C@@](C(=O)c1ccccc1)(C2=O)C3(C)C` belongs 1.7; to `CC(C)c1cc2cc(O)cc(O)c2c(=O)o1`, 0.983.
`COc1ccc([C@@]23Oc4cc(OC)cc(OC)c4[C@]2(NCc2ccccc2)C(=O)C[C@H]3c2ccccc2)cc1`: the growth came out at 0.901.
To `COC(=O)c1cc2c(c3c4cc(C)ccc4n(S(=O)(=O)c4ccc(C)cc4)c13)C(=O)N(Cc1ccccc1)C2` belongs 1.1.
The value for `Cc1cc(O)c2c(=O)cc(C(=O)O)oc2c1` was 1.2.
As to `COC(=O)C/C=C/[C@H](C)[C@@H](NC(=O)[C@H](Cc1ccccc1)NC(=O)OC(C)(C)C)C1CC1`, the growth turned out to be 1.09.
With `CC(C)=CCC1=CC(O)CCC1=O` (stereo not drawn), the growth turned out to be 1.08.
As to `Cc1cc(N)n(Cc2ccccc2C)n1`, the growth stood at 0.991.
The value for `COC(=O)c1[nH]c2ccc(OC)cc2c1[C@]12CCN(C(=O)Cc3ccccc3F)[C@H]1Nc1ccccc12` was 1.03; that for `C/C=C/C=C/C(=O)c1c(O)c(C)c(O)c(C)c1OC` was 1.01; that for `C[C@H]1[C@@H]2C[C@@]3(O[C@H](C4CCNCC4)N=C3C[C@@H]1c1ccccc1)N(Cc1ccncc1)C2=O` was 1.23.
With `COc1ccc(-c2cnc3c(-c4cccnc4)cnn3c2N)cc1`, the growth was 1.01.
To `COc1cccc(C2NC(=O)N3CCC=CC3=C2C(C)=O)c1` (stereo not drawn) belongs 1.02.
To `CC(C)Cc1n[nH]c2c1[C@@H](c1ccc(F)cc1)N([C@H]1CC[C@H](N(C)C)CC1)C2=O` belongs 1.01.
The value for `C=CCN1c2cc(OC)cc(OC)c2[C@@]2(O)C(=O)C1(c1ccc(Br)cc1)[C@H](c1ccccc1)[C@@H]2C(=O)OC` was 0.616.
For the molecule `CC(C)CC1=NCCN(C)C2=C1C(c1ccccc1)NC2=O` (stereo not drawn), the growth is 1.12.
On to `CCN(CC)C(=O)c1nnc(C(=O)OC)c2c1[nH]c1ccccc12`, for which the growth stood at 1.16.
Turning to `COC(=O)[C@@]12Oc3ccc(-c4ccc(C)o4)c(O)c3C(=O)C1=C(N)C[C@H](C)[C@H]2O`, the growth worked out at 1.14.
To `COc1ccc(/C=C/[C@H]2c3ccc(OC)cc3O[C@@H]3c4ccc(OC)cc4O[C@@H](c4ccc(OC)cc4)[C@@H]32)cc1` belongs 1.06.
For `CC(=O)C1=C2C=CCCN2C(=O)NC1c1ccc(F)c(F)c1` (stereo not drawn), the growth was 1.07.
To `CC1=CC[C@@H](C)OC2(C1)C(=O)Nc1ccccc12` (stereo partly drawn) belongs 0.945; to `COC(=O)C1=C(O)C(C)(Cc2ccccc2)C(=O)C(C)=C1C` (stereo not drawn), 1.07.
To `COC(=O)c1c2n[nH]c1-c1cccc(c1)C(=O)NCC1(CCCCC1)CC(=O)NCCC2` belongs 1.03; to `COC(=O)CCC[C@H](C)[C@@H](NS(=O)(=O)c1ccc(C)cc1)C(C)(C)C`, 0.848; to `Cc1ccc(C2C3=C(NC(C)(C)CN=C3c3ccccc3)C(=O)N2c2ccccc2)cc1` (stereo not drawn), 0.977.
The value for `C=C(C)CC[C@H](Cc1c(O)cc(O)c2c1O[C@H](c1ccc(O)cc1O)CC2=O)C(=C)C` was 0.736; that for `C#CCOC[C@H](NC(=O)[C@@H]1C[C@@H](O)CN1C(=O)c1cccc2cnnn12)c1ccccc1` was 1.17.
In the case of `COC(=O)C1=C(C)N(Cc2ccccc2)C(NCC2CC2)=NC1c1ccccc1` (stereo not drawn), the growth was 1.01.
`CC(=O)c1c(O)cc(O)cc1Br`: the growth was found to be 1.2.
In the case of `O=c1c2ccccc2oc2c(O)cccc12`, the growth came out at 0.828.
The value for `COc1cccc(C2NC(=S)N(Cc3ccc(Br)cc3)C(C)=C2C(C)=O)c1` (stereo not drawn) was 0.847.
The value for `COc1ccc(-c2cnc3c(-c4ccc(F)cc4)cnn3c2N)cc1` was 1.14; that for `CCCC[C@]12Cc3cc(OC)c(OC)cc3[C@H](O1)C1=C(CC(C)(C)CC1=O)O2` was 0.893; that for `O=C(c1c(O)cc(O)cc1Nc1ccnn1CC1CCCCC1)N1Cc2cn[nH]c2C1` was 0.98.
The value for `COCn1c2ccccc2c2nnc(C(C)=O)nc21` was 1.12; that for `CC(C)Cc1n[nH]c2c1C(c1ccccc1Cl)N(c1ccc(N(C)C)cc1)C2=O` (stereo not drawn) was 0.982; that for `Cc1ccc(/C=C/c2cc(/C=C/c3ccc(C)cc3)[nH]n2)cc1` was 1.16.
In the case of `CCCN1C(=O)c2[nH]nc(C)c2C1c1ccc(C)cc1` (stereo not drawn), the growth was 0.926.
As to `Cc1ccc(C2NC(=O)c3c2c(C(C)C)nn3-c2ccc(F)cc2)cc1` (stereo not drawn), the growth stood at 1.05.
On to `C=CCOC(=O)/C=C/NC(=O)c1ccccn1`, for which the growth amounted to 1.11.
To `C=CCN1C(=O)C2=C(C(CC(C)C)=NCCN2)C1c1ccc(Br)cc1` (stereo not drawn) belongs 1; to `CCOC(=O)c1nnc(-c2ccccc2NC(=O)OC(C)(C)C)c(=O)[nH]1`, 0.964.

Values taken from the supplement of paper PMC10986608.
